Measured values reported in patent EP4296276A1, “DISC1-BINDING PEPTIDES AND THE USE THEREOF FOR THE TREATMENT AND DIAGNOSIS OF SCHIZOPHRENIA, MAJOR DEPRESSIVE DISORDERS (MDD), AND BIPOLAR DISORDERS (BD), AND AUTISM AND OTHER CHRONIC MENTAL DISORDERS (CMDS)” (Forschungszentrum Jülich GmbH, priority 2022, dated 2023).
pKd: −log10 of the molar value. Not every detail of the peptide structures is certain; ends, links or a residue may be inferred. Ends that are not written are not given here.

Key:
Set-up in all cases: species or system human
Conditions in all cases: peptide immobilized on sensor chip, protein 2 µM, 25 °C, TBS pH 7.4, KD = Koff/Kon
[1] = target: DISC1 C-region (residues 691-836) L807-FS; assay: Bio-layer interferometry (BLI) peptide-protein binding, L807-FS C-region construct
[2] = target: WT C-region of DISC1 (residues 691-836); assay: Bio-layer interferometry (BLI) peptide-protein binding, WT C-region construct
[3] = target: DISC1 C-region (residues 691-836) S713E; assay: Bio-layer interferometry (BLI) peptide-protein binding, S713E C-region construct
[4] = target: DISC1 C-region (residues 691-836) S704C; assay: Bio-layer interferometry (BLI) peptide-protein binding, S704C C-region construct

| Substance | pKd [1] | pKd [2] | pKd [3] | pKd [4] |
| --- | --- | --- | --- | --- |
| AWQHHELKWKQYQGWR-NH2 [Flm2, AWQHHELKWKQYQGWR-NH2] | 6.96 | 6.19 | 6.66 | 6.82 |
| FPHPTLKHREFMRHVS-NH2 [Flo1, FPHPTLKHREFMRHVS-NH2] | 7.40 | 7.00 | 7.15 | 6.80 |
| GIKSLISNKMHTQWNY-NH2 [Flm5, GIKSLISNKMHTQWNY-NH2] | 6.96 | 6.19 | 7.10 | 6.82 |
| HISMQTYKWSQWAKHQ-NH2 [Flo3, HISMQTYKWSQWAKHQ-NH2] | 6.40 | 5.58 | 6.38 | 6.57 |
| HKLHHLLKWENQHKVE-NH2 [Flm11, HKLHHLLKWENQHKVE-NH2] | 6.27 | 5.90 | 6.38 | 6.14 |
| IWAGHIHDWWRRGQGS-NH2 [Flm1, IWAGHIHDWWRRGQGS-NH2] | 6.70 | 6.82 | 7.10 | 7.10 |
| KYTAIHEWYKAHNGGA-NH2 [Flo8, KYTAIHEWYKAHNGGA-NH2] | 6.77 | 5.58 | 6.34 | 5.98 |
| PWYNAPHSHGFWGSGR-NH2 [Flm9, PWYNAPHSHGFWGSGR-NH2] | 6.41 | 5.49 | 5.82 | 5.83 |
| QDNPWWHEHKHWKSWP-NH2 [Flo5, QDNPWWHEHKHWKSWP-NH2] | 6.57 | 6.60 | 6.68 | 6.44 |
| SNWHPRHFFMSPSSPQ-NH2 [Flo6, SNWHPRHFFMSPSSPQ-NH2] | 6.77 | 5.63 | 6.34 | 6.14 |
| TSGVPWWKFQQQVRRT-NH2 [Flo11, TSGVPWWKFQQQVRRT-NH2] | 6.80 | 5.43 | 6.05 | 5.97 |
| WNHPMNIRSISWHKDS-NH2 [Flm6, WNHPMNIRSISWHKDS-NH2] | 6.28 | 5.70 | 5.97 | 5.65 |
